The list shows a part of the results.
Test system: HepG2
Experiment: cytotoxicity call (relative viability < 0.9)
Conditions: 10 µM

SMILES | cytotoxicity call
C[C@@H]1CCCCO[C@H](CN(C)C(=O)Nc2cccc3ccccc23)[C@@H](C)CN([C@@H](C)CO)C(=O)c2cc(NC(=O)Nc3ccc(F)cc3)ccc2O1 | inactive
Cc1cccc(S(=O)(=O)N2C[C@@H](O)COC[C@H]3O[C@H](CC(=O)NCc4ccncn4)CC[C@@H]32)c1 | inactive
COc1ccc(NC(=O)Nc2ccc3c(c2)C(=O)N([C@@H](C)CO)C[C@@H](C)[C@@H](CN(C)S(=O)(=O)c2ccc(OC)cc2)OCCCC[C@@H](C)O3)cc1 | inactive
COc1ccccc1C#Cc1ccc2c(c1)O[C@@H](CN(C)Cc1ccncc1)[C@H](C)CN([C@H](C)CO)S2(=O)=O | inactive
CC(C)CC#Cc1ccc2c(c1)O[C@@H](CN(C)S(=O)(=O)c1cccc(F)c1)[C@H](C)CN([C@H](C)CO)S2(=O)=O | inactive
C[C@H](CO)N1C[C@H](C)[C@H](CN(C)S(=O)(=O)c2ccc(F)cc2)OCCCC[C@H](C)Oc2ccc(NS(C)(=O)=O)cc2C1=O | inactive
C=C(C)COc1ccc([N+](=O)[O-])cc1 | inactive
COc1ccc(Sc2ccc(N(C(=O)c3ccccc3Cl)C(=O)c3ccccc3Cl)cc2C#N)cc1 | active
C[C@@H]1CN([C@@H](C)CO)C(=O)c2cccc(NS(C)(=O)=O)c2O[C@@H]1CN(C)C(=O)Nc1ccc(C(F)(F)F)cc1 | inactive
O=C(C[C@@H]1C=C[C@@H](NC(=O)c2ccc3c(c2)OCO3)[C@H](CO)O1)NCc1ccc(Oc2ccccc2)cc1 | inactive
C[C@H]1CN([C@@H](C)CO)C(=O)c2cccc(NC(=O)CCCCCC(=O)Nc3ccccc3N)c2O[C@@H]1CN(C)Cc1ccc(Oc2ccccc2)cc1 | inactive
CCOC(=O)[C@H]1[C@@H]2C=C[C@]3(O2)[C@H](C(=O)NCc2ccccc2)N(Cc2cc(OC)cc(OC)c2)C(=O)[C@@H]13 | inactive
C[C@@H]1CN([C@H](C)CO)C(=O)c2cc(NS(=O)(=O)c3ccc(Cl)cc3)ccc2O[C@H]1CN(C)S(=O)(=O)c1cn(C)cn1 | inactive
C[C@H](CO)N1C[C@H](C)[C@@H](CN(C)Cc2ccc(Oc3ccccc3)cc2)Oc2c(NC(=O)Cc3ccccc3)cccc2C1=O | inactive
Cc1cn2c(=O)c(C(=O)O)cnc2s1 | inactive
O=C(C[C@H]1CC[C@H]2[C@@H](COC[C@@H](O)CN2S(=O)(=O)c2cccc(F)c2)O1)NCc1ccncn1 | inactive
Cc1noc(C)c1NC(=O)N(C)C[C@@H]1Oc2ccc(NS(=O)(=O)c3ccccc3)cc2CC(=O)N([C@H](C)CO)C[C@H]1C | inactive
Cc1ccc(-c2csc(-c3ccc(C(F)(F)F)cc3)n2)cc1 | inactive
C[C@H](CO)N1C[C@H](C)[C@H](CN(C)C(=O)c2ccccc2)OCCCC[C@H](C)Oc2ccc(NC(=O)Cc3ccccc3)cc2C1=O | inactive
CC(C)NC(=O)N(C)C[C@@H]1Oc2ccc(NC(=O)CCC(F)(F)F)cc2CC(=O)N([C@H](C)CO)C[C@H]1C | inactive

SMILES | cytotoxicity call
Cc1cc(C(=O)Nc2cccc3c2O[C@H](CN(C)C(=O)Nc2ccc4c(c2)OCO4)[C@@H](C)CN([C@H](C)CO)C3=O)n(C)n1 | inactive
C[C@@H]1CN([C@H](C)CO)C(=O)c2cc(NS(=O)(=O)c3cccs3)ccc2O[C@@H](C)CCCCO[C@@H]1CN(C)Cc1ccc(C(=O)O)cc1 | inactive
COc1cc(N2CCO[C@]3(COCCN(S(C)(=O)=O)C3)C2)ncn1 | inactive
C[C@@H]1CCCCO[C@H](CN(C)C(=O)c2ccccc2)[C@H](C)CN([C@@H](C)CO)C(=O)c2cc(NC(=O)Nc3ccc(C(F)(F)F)cc3)ccc2O1 | active
C[C@@H]1CN([C@H](C)CO)C(=O)CCCn2cc(nn2)CO[C@H]1CN(C)C(=O)c1cc(-c2ccccc2)on1 | inactive
C[C@H](CO)N1C[C@H](C)[C@@H](CN(C)C(=O)Nc2ccccc2)OCCCC[C@H](C)Oc2ccc(NS(=O)(=O)c3cccs3)cc2C1=O | inactive
CCc1cn(C2OCC(O)C2CO)c(=O)nc1O (stereo not given) | inactive
Cc1nnc(SCC2=C(C(=O)[O-])N3C(=O)C(NC(=O)Cn4cnnn4)C3SC2)s1.[Na+] (stereo not given) | inactive
C[C@H](CO)N1C[C@H](C)[C@H](CN(C)S(=O)(=O)c2ccccc2F)Oc2cc(C#Cc3cccc(F)c3)ccc2S1(=O)=O | inactive
Cc1noc(C)c1NC(=O)N(C)C[C@H]1Oc2ccc(NS(C)(=O)=O)cc2CC(=O)N([C@@H](C)CO)C[C@@H]1C | inactive
C[C@H]1CN([C@@H](C)CO)C(=O)c2cccc(NC(=O)Nc3cccc4ccccc34)c2O[C@H]1CN(C)C(=O)Nc1ccccc1 | inactive
Cc1ccc(S(=O)(=O)Nc2ccc3c(c2)C(=O)N([C@@H](C)CO)C[C@@H](C)[C@@H](CN(C)Cc2ccc(-c4ccccc4)cc2)O3)cc1 | active
C[C@@H]1CN([C@H](C)CO)C(=O)Cc2cc(NC(=O)Nc3ccc4c(c3)OCO4)ccc2O[C@H]1CN(C)S(C)(=O)=O | inactive
C=CCOC(=O)O[C@H]1[C@@H](OC)O[C@H](COC(=O)NCCCCCC(=O)NO)[C@H]2OC(=O)[C@@H](Cc3cccc(Br)c3)C/C=C/C[C@H](Cc3ccccc3)C(=O)O[C@H]12 | inactive
NNC(=O)C1[C@H]2CCCC[C@@H]12 (stereo not given in full) | inactive
N#C[C@@H]1N[C@H](CO)[C@@H]1c1ccccc1 | inactive
COc1cc2nc(N3CCN(C(=O)c4ccco4)CC3)nc(N)c2cc1OC.Cl | active
COc1cc2ccccc2cc1C(=O)OCC(=O)N(CC(C)C)c1c(N)n(Cc2ccccc2)c(=O)[nH]c1=O | inactive
COc1ccc(CN(C)C[C@@H]2Oc3ccc(NS(=O)(=O)c4c(C)noc4C)cc3CC(=O)N([C@H](C)CO)C[C@H]2C)cc1 | inactive
CNC(=O)C[C@H]1CC[C@H]2[C@@H](COC[C@@H](O)CN2C(=O)Nc2cccc(OC)c2)O1 | inactive

Reference: the antibiotic and cytotoxicity screens of Wong et al. (2023)
